From PubChem BioAssay (NCATS)
The shares of active, inactive and inconclusive entries below differ from those in the screen. Where the call is inconclusive, the potency comes from a doubtful curve fit. The source made the active and inactive calls. Calls follow the shape of the dose curve; as a rule, active = well fitted inhibition curve with a large enough effect; inconclusive = small, poorly fitted or top-dose-only effect; inactive = flat fitted curve, though single readings scatter.

What follows are compounds tested on HEK293 (assay: Cytotoxic Profiling of Annotated Libraries Using Quantitative High-Throughput Screening (AID 1296008; also: nearly all actives have a fitted effect of over 60% in size)). Conditions: Five cell lines viability, CellTiter-Glo ATP luminescence, 48-72 h; max response: active compounds read low.
Summary of the method: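 Cells exposed to compounds for 48 or 72 hr at 37 degrees Celsius. Viability read as ATP-coupled luminescence with CellTiter-Glo after 10 min at room temperature.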
% is scaled to controls: 0 for no effect and ±100 for the full control effect; potency is read from the fitted curve at half-maximal effect; tags tell the direction and shape of the fitted curve.

Row | Structure (SMILES) | Potency | max response | outcome
1 | CC(C)[C@@H](c1ccc(C(F)(F)F)cc1CN(Cc1cc(C(F)(F)F)cc(C(F)(F)F)c1)c1nnn(C)n1)N1CCC(C(=O)O)CC1 | inconclusive: 20.6 µM [inhibitor, single point] |  | 
2 | C=CC(C)(O)CC[C@H]1C(=C)CCC2[C@](C)(C(=O)O)CCC[C@@]21C (stereo partly specified) |  | inactive: -3.52% | 
3 | O=C(O)[C@H]1Cc2ccccc2CN1 |  | inactive: 4.72% | 
4 | CNc1nc(C)nc(N[C@H]2CCC[C@@H](C(=O)NCc3ccc(C#N)cc3C(F)(F)F)C2)n1 |  | inactive: -15.3% | 
5 | O=[N+]([O-])c1ccc(Oc2ccc3c(c2)CCC(c2ccccc2)O3)nc1 (stereo unspecified) | inconclusive: 20.6 µM [inhibitor, single point] |  | 
6 | CN(CCCOc1ccc(Cc2ccccc2)cc1)CCC(=O)O |  | inactive: -4.43% | 
7 | C=C1CCC2C(C)(CO[C@@H]3O[C@H](CO)[C@@H](O)[C@H](O)[C@H]3O)C(O)CCC2(C)C1C(=O)CC1=CCOC1=O (stereo partly specified) |  |  | inactive
8 | CC1OC(OC2C(O)COC(O[C@@H]3[C@@H](O)[C@@H](O)[C@H](OC4C(OC(=O)[C@]56CCC(C)(C)CC5C5=CCC7[C@@]8(C)C[C@H](O)[C@H](OC9OC(CO)C(O)C(O)C9O)[C@@](C)(CO)C8[C@H](O)C[C@@]7(C)[C@]5(C)CC6)OCC(O)C4O)O[C@H]3C)C2O)C(O)C(O)C1O (stereo partly specified) | inconclusive: 0.977 µM [inhibitor, single point] |  | 
9 | O=C(NC[C@H](O)CN1CCc2ccccc2C1)c1ccnc(NC2CCC2)c1 | inconclusive: 29.1 µM [inhibitor, single point] |  | 
10 | COc1cc(C(=O)OC(COCCC(C)C)CN2CCOCC2)cc(OC)c1OC (stereo unspecified) |  |  | inactive
11 | CN1CCc2cc3c(cc2C(=O)Cc2cc4c(cc2C1)OCO4)OCO3 | inconclusive: 20.2 µM [inhibitor, single point] |  | 
12 | CN1C(=O)c2ccccc2NC(=O)[C@]12O[C@@H]2c1cccc(O)c1 |  |  | inactive
13 | CN(C)c1ccc(NC(=O)NS(=O)(=O)c2ccc(Cl)cc2)cc1 | inconclusive: 29.1 µM [inhibitor, single point] |  | 
14 | CC(=O)[C@@]1(O)CC[C@H]2[C@@H]3CCC4=CC(=O)CC[C@]4(C)[C@H]3CC[C@@]21C | inconclusive: 33.5 µM [inhibitor, single point] |  | 
15 | O=C(NC1CCN(CCc2c[nH]c3ccccc23)CC1)c1ccccc1 | inconclusive: 33.5 µM [inhibitor, single point] |  | 
16 | O=C(Nc1cccnc1)c1cc(-c2ccnc(F)c2)ccc1OCc1ccccc1 | inconclusive: 5.17 µM [inhibitor, full curve] |  | 
